# From the supplement of paper PMC11417369
# ± gives the standard deviation of the averaged measurements. This is one part of the list.
# System: PfAP2-G AP2 domain (GST-tagged)
# Experiment: gcPBM binding intensity (ln(normalized median fluorescence intensity)); higher = stronger DNA binding
# Outline: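 DNA-binding domains from P. falciparum, fused to GST and produced in E. coli, were put on an Agilent 4 × 180k double-stranded probe array for 1 h in 1× PBS holding 1% milk, 0.2 mg/ml BSA, 0.5% salmon testes DNA and 0.03% Triton X-100. Probes were primer-extended, 36 bp long and drawn from intergenic genomic regions, with negative controls included. After Alexa488 anti-GST antibody detection and a 488 nm scan, binding intensity was set as the highest Masliner-normalised natural-log median intensity across replicate spots of either probe orientation.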
row,Sequence,gcPBM binding intensity (ln)
1,TATATAGCATATTTCACACACACATAATGAATATTA [CACACA_site3546],9.91 ± 0.16
2,ATGATATACGTAAACACACAAATAAAAAAAATTTAT [CACACA_site7544],10.3 ± 0.3
3,AATATATTTTCCTGCAAACACACATATAAATGTGTA [CACACA_site532],9.865 ± 0.064
4,TATCAAATGTATATATGTACTTATATTTTTTTTATA [XGTACX_site1501],11.2 ± 0.74
5,ATGCTCAAAAGATATGCATGTACAAATATATGAAAT [TGCATGCA_site592],10.6 ± 0.35
6,TATATTACAAAAAGTACACACATAAATAAATACATA [CACACA_site975],11.5 ± 1.1
7,ATGATGTCTTTATATTGTACATATATGAAGACGTTA [XGTACX_site7751],11 ± 0.65
8,ACATACATACACCCACGTACGTACCGAAACACCACC [XGTACX_site1212],11.7 ± 1.1
9,GATATAATGTGTTTGGTATTCTTGATAGATAGTTTT [CACACA_negctrl_site1711],9.91 ± 0.13
10,TTTCGTAAAATGAAATGTACTCAAAAGTAAATATAA [XGTACX_site214],11.2 ± 0.86
11,ACTTCAAAAATAAACTGTACGTAAAAAAAAAAAAAA [XGTACX_site795],11.5 ± 1
12,TTTCTTTTTTTTTTTGTATATTAAATCTAAAAAGGA [TGCATGCA_negctrl_site431],9.8 ± 0.38
13,TTTAAATAAAATATTACACACTTAGAAAAATATATA [CACACA_site3663],9.81 ± 0.12
14,CTATCTACATAAACGTGTACCCACAAATAAATAAAT [XGTACX_site5210],11.4 ± 0.79
15,TCATATGTATAAATTAGTACATATTTAATGGATATA [XGTACX_site3298],11.1 ± 0.71
16,TTAACCTTTTGATATTGTACCCATAATCTAATACAA [XGTACX_site769],11.3 ± 0.77
17,TTTTTTAAAAAAGTTTTCTGTATTTATATATATATA [CACACA_negctrl_site31],9.97 ± 0.28
18,AAATGAAAATAAAGCAACAGAAATATAATGTATTAT [GTGCAC_negctrl_site508],10.06 ± 0.085
19,TATGAATGGTTAAGTACACACATATTAATATATGTA [CACACA_site3490],11.3 ± 0.99

row,Sequence,gcPBM binding intensity (ln)
1,TTATGTCATAAATGCACACATATATATATACATATA [CACACA_site1588],9.915 ± 0.064
2,AGGCACGTGTTATATACACACATAATCAAATAAACT [CACACA_site7852],10 ± 0.11
3,ACATTTTATACGATAAAATGTATAAGATTATGAAGA [TGCATGCA_negctrl_site476],10.01 ± 0.057
4,AAAATAATAACATTGTGTACATAAAAAGAAAACCTT [XGTACX_site840],11.5 ± 0.91
5,ATATATATATATACATGTACAAATGTATAACAAATG [XGTACX_site145],10.9 ± 0.4
6,CACCCATAAATATACACACGCACAACACAAAATAAA [CACACA_site2903],10.4 ± 0.35
7,AATCGTGTTCTGAATACACACTAATACAAATTTGTA [CACACA_site6058],10.2 ± 0.13
8,AACAAAAATAATAATCAAATAAATAAATGAAAACAT [CACACA_negctrl_site456],9.71 ± 0.11
9,AGAAAATTAAAAAGAACACACAAATATATATATAAT [CACACA_site5896],10.045 ± 0.007
10,ATATTACAACATTTTATACACACGTGATTATTAATT [CACACA_site2877],10.2 ± 0.12
11,AACATTTTAAAACAGACACACACCAAAAAAAAAAAA [CACACA_site257],10 ± 0.37
12,TTTTTTTACAACATTACACACAAATATTCTGTGTTA [CACACA_site5957],10 ± 0.11
13,GTTTATAAAATAAGAAGTACTTTATGAGAACCATAT [XGTACX_site5789],11.3 ± 0.71
14,ATAAACAAGACGCAACAAAGTAGAAATTAAAAATAA [CACACA_negctrl_site345],9.97 ± 0.014
15,AAAAATGGAATTATCTGTACATATATAGTTTTTAAA [XGTACX_site5580],11 ± 0.59
16,CATCCTATTACTTGGTGTACTATTTTATATTGAATA [XGTACX_site1050],11.5 ± 0.97
17,ATAAATTTATCCAAGTGTACAAAGCTAACATTTTTT [XGTACX_site4399],10.9 ± 0.57
18,TTTTGAGTAGCCTATTGTACGAACTTTTTAAATACA [XGTACX_site1224],11.2 ± 0.93
19,CCATTTTAAATATGCACACAGATGCACTAACACATT [CACACA_site5099],10.3 ± 0.26

row,Sequence,gcPBM binding intensity (ln)
1,AATATATACGCATGCGCACACACAAGTGGGAAATTT [CACACA_site1786],10.6 ± 0.39
2,TGGTACCTTACTTTTACACACTTTTTTTTTTTTTTT [CACACA_site1557],10.7 ± 0.36
3,TAAATACAGAAACACACACACAAATATATACATACA [CACACA_site2880],9.975 ± 0.021
4,AATTCTTTTTTCAACACACACACACTAGAAAATATA [CACACA_site5681],10.3 ± 0.3
5,TTTATATATTATTAATGTACAAAATTTTTATTGCAT [XGTACX_site3329],10.6 ± 0.38
6,ACATTAAGACACATTGCACACGTGCACCCATAGAAA [CACACA_site8029],10.7 ± 0.55
7,ACCTGGACAAAAATAAATAAATAAATAAATAAATGA [GTGCAC_negctrl_site238],10.1 ± 0.35
8,AAAATCTAATATAATGCACACATAAAAAAAAAATCA [CACACA_site8871],10.1 ± 0.3
9,TACATCGACCTATGTACATGCAAATTATTTTTATTT [TGCATGCA_site182],11 ± 0.62
10,TTTTTTTTTTTTTTGGTGCGTTTATATATAAATATA,9.94 ± 0.47
11,GGAATTATATGAAATAAACACACATATGTAATATTA [CACACA_site8586],9.915 ± 0.007
12,GTCCTTCATCATATTTAACACACAGAGAAAAAGCGG [CACACA_site7979],10.4 ± 0.36
13,CTTTTAATATGTGTAGTGCATTTTTTTTTTTTTTTT [GTGCAC_site9727],10.4 ± 0.24
14,AAAAAAAAAAAAAACACACACAACACCCATACCTTA [CACACA_site3621],10.2 ± 0.18
15,TAAAAGAAATATACATGTACATAAATATATATATAT [XGTACX_site1276],11.3 ± 0.54
16,GCCCAACCAAAATATACACACAGTTGAATGAATAAA [CACACA_site2597],9.975 ± 0.007
17,TATATTTGGAAATATTCTCAATTGGTACAAATAAAA [CACACA_negctrl_site1202],10.8 ± 0.53
18,AATAATAAATTATGGTGTACGCATTTGTATATATAC [XGTACX_site5417],11.7 ± 0.98
